Measured values: PMC4336329 (PLoS ONE, 2015)
Screen size: about 310,000 compounds; about 14,000 (4.5%) showed an effect of 50% or more. The effect is printed as a negative number. The list shows a part of the results.

The molecules below were run against human ether-à-go-go-related gene (hERG) potassium channel (human, UniProt Q12809) (assay: primary screen, population patch clamp on CHO cells stably expressing hERG).
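Note: peak tail current of the secondary pulse compared with the same well before compound.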

Sequence of human ether-à-go-go-related gene (hERG) potassium channel (Q12809 whole entry, looked up): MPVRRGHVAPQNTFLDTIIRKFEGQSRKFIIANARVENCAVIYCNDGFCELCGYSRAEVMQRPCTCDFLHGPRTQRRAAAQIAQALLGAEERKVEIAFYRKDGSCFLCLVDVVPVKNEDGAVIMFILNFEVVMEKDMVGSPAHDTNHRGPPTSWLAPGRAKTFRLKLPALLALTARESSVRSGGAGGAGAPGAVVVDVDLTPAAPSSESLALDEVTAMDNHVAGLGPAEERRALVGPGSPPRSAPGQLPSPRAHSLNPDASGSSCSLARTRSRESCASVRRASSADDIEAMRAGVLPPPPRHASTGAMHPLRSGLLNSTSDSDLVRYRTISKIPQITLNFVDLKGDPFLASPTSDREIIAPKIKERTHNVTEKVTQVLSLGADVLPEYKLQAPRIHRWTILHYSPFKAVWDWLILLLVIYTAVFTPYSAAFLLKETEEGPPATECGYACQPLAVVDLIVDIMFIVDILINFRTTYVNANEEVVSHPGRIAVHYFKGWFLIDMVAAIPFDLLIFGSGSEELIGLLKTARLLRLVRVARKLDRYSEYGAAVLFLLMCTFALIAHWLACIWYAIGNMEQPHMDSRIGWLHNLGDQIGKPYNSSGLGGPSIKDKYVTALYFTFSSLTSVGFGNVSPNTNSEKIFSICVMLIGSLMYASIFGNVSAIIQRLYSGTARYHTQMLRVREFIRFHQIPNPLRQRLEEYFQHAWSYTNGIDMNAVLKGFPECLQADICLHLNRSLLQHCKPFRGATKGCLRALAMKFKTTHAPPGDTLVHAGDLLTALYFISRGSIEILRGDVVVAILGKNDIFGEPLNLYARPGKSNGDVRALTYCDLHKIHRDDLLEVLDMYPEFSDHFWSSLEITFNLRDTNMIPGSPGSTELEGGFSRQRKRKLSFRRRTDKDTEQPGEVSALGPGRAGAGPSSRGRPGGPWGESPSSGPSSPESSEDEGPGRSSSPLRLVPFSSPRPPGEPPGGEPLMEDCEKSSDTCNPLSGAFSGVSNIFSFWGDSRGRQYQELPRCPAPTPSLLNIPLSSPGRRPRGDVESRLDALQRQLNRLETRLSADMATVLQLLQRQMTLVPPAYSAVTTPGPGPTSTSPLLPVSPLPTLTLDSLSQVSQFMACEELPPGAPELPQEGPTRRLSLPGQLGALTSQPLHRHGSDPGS

| SMILES | hERG current change (%, negative = inhibition) at 10uM [%] |
| --- | --- |
| N#Cc1ccccc1S(=O)(=O)N1CCN(CC(O)CN2CCOCC2)CC1.O=C(O)C(=O)O (stereo not drawn) | -14.5 |
| Cc1ccccc1-n1c(N)cc(=O)[nH]c1=S | 13.2 |
| CCCN1C(=S)c2ccccc2C1c1ccccc1 (stereo not drawn) | 6.96 |
| O=C(CC12CC3CC(CC(C3)C1)C2)N1CCCC1 | 10.4 |
| CC(Sc1nnc(Nc2ccccc2)s1)C(=O)NC1CCCc2ccccc21 (stereo not drawn) | 6.98 |
| CNC(=O)c1c(Cl)cnn1-c1ccccc1 | 12.2 |
| O=c1[nH]c2ccccc2c(=O)n1-c1ccc(Cl)cc1Cl | 8.11 |
| Cc1ccc(CCN2CC(C(=O)N3CCC4(CC3)OCCO4)CC2=O)cc1 (stereo not drawn) | 9.41 |
| Cc1ccc(S(=O)(=O)N2CCN(Cc3nnc(-c4c(-c5ccccc5)noc4C)o3)CC2)cc1 | -30.7 |
| O=C(CN1c2ccccc2Sc2ccccc21)NNC(=S)Nc1ccc(Cl)cc1Cl | -2.84 |
| C/C(=N\N=C(c1ccccc1)c1ccccc1)c1ccco1 | 25.8 |
| CC1(C)Cc2c(cnn2-c2ccc(F)cc2)C(NC(=O)CN2CCCC2=O)C1 (stereo not drawn) | 5.98 |
| CN1CCN(C(=S)Nc2ccccc2Cl)CC1 | 14.2 |
| CCOc1cc(C(=O)N2CCC3(CC2)NCCc2[nH]cnc23)cc(OCC)c1OCC | 21.3 |
| Br.COc1ccc(-c2cn3ccccc3n2)cc1OC | -0.714 |
| CCOc1ccc(S(=O)(=O)NC2=NCCCCC2)cc1 | 3.57 |
| COc1ccc(/C=C/c2nc(-c3ccccc3O)n[nH]2)cc1 | 25.1 |
| CCOC(=O)c1sc(-c2ccc(Cl)cc2)nc1O | -1.36 |
| O=S(=O)(NCc1ccc2c(c1)OCO2)c1ccc(F)cc1 | -3.91 |

| SMILES | hERG current change (%, negative = inhibition) at 10uM [%] |
| --- | --- |
| O=C(Cn1nc2n(c1=O)-c1ccccc1SC2)N/N=C/c1cccs1 | 6.45 |
| COC(=O)c1ccc(NC(=O)c2ccccc2NS(=O)(=O)c2ccccc2)cc1 | 6.09 |
| O=[N+]([O-])c1ccc(Sc2n[nH]c(-c3ccc(Cl)cc3Cl)n2)nc1 | -10.3 |
| Fc1cccc(NC(=S)N2CCc3ccccc32)c1 | 8.54 |
| CC1CCN(c2ncccc2C(=O)O)CC1 | -16.2 |
| Cc1ccc(S(=O)(=O)N2[C@@H](c3cccc(Cl)c3)C(C(=O)O)=CC[C@H]2c2cccs2)cc1 | 13.7 |
| Br.CCn1c(=N)n(CC(=O)c2ccc(OC)c(OC)c2)c2ccccc21 | -13.7 |
| CCN(CC(=O)Nc1ccc(NC(C)=O)cc1)C(=O)C1COc2ccccc2O1 (stereo not drawn) | 13.3 |
| O=C(COc1ccc2c(-c3ccccc3)cc(=O)oc2c1)NCCCn1ccnc1 | -48.7 |
| O=C(CSc1ccccc1)NCc1ccccc1 | 12 |
| O=C(NCC(=O)N(c1cccnc1)C(C(=O)NC1CCCC1)c1ccc(F)cc1)c1ccco1 (stereo not drawn) | 17.4 |
| COC(=O)CSc1nnc(-c2ccccc2OC)n1-c1ccc(C)cc1 | -10.5 |
| CCNC(=O)COC(=O)c1[nH]c(C)c(C(=O)OC)c1C | 8.24 |
| CC(=O)Nc1ccc(S(=O)(=O)Nc2ccc(-n3cnnn3)cc2)cc1 | 11.5 |
| Cc1cc(C(C)(C)C)oc1C(=O)OCC(=O)NC1CCCCC1 | 0.649 |
| CCCCOC(=O)c1ccc(NC(=O)COC(=O)CN2C(=O)NC3(CCCC3)C2=O)cc1 | 3.35 |
| O=C(COc1ccccc1)N1CCN(C(=O)c2cccc(F)c2)CC1 | -7.92 |
| O=C(CN1C(=O)c2cccc3cccc1c23)NCc1ccncc1 | -4.02 |
| CC(C)C(C(=O)NCC1CCCO1)N(Cc1cccs1)C(=O)CNS(=O)(=O)c1ccccc1 (stereo not drawn) | -28.7 |

| SMILES | hERG current change (%, negative = inhibition) at 10uM [%] |
| --- | --- |
| COc1ccccc1OCc1ccc(C(=O)Nc2ccncc2)o1 | -38 |
| CC(C)n1cnnc1SCC(=O)NNC(=O)COc1ccc(Cl)cc1 | 19.2 |
| COc1ccccc1NC1CCCCC1NS(=O)(=O)c1ccccc1 (stereo not drawn) | 15.2 |
| CCC(c1nnnn1C(C)(C)CC)N(CCCO)Cc1cc2cccc(C)c2[nH]c1=O (stereo not drawn) | -18.7 |
| O=[N+]([O-])c1ccc(N2CCNCC2)cc1NC1CC1 | -13.6 |
| Cc1c(C#N)c(N)nc2c3c(sc12)NC(=O)CC3c1ccccc1 (stereo not drawn) | 12.6 |
| Cc1ccccc1Cn1c(O)c(N=NC(=S)Nc2ccccc2F)c2ccccc21 | 19.6 |
| CCN=c1scc(-c2ccco2)n1/N=C/c1ccc(O)cc1 | 2.74 |
| COc1ccc(Nc2nc3ccccc3c(=O)s2)c(OC)c1 | 17.3 |
| C=CCn1c(SCc2c(C)noc2C)nc2sc3c(c2c1=O)CCCCC3 | 0.151 |
| Cc1ccc(N2C(=O)NC(=O)C(CCc3ccncc3)(Cc3cccc(Cl)c3Cl)C2=O)cc1 (stereo not drawn) | 6.14 |
| CCOC(=O)c1[nH]c(C)c(CN(C(C)=O)c2ccc(OCC)cc2)c1C | -4.86 |
| Cc1ccc2c(c1)cc(CN(CCc1ccccc1)C(=O)N1CCOCC1)c1nnnn12 | -61.3 |
| Cl.NC(N)=NC(=O)Cc1c(Cl)cccc1Cl | 13.9 |
| CCn1c2ccccc2c2cc(NC(=O)COc3ccc(OC)cc3)ccc21 | 4.94 |
| O=[N+]([O-])c1ccc(COc2ccccc2/C=N/O)cc1 | -4.22 |
| COc1ccc(NC(=O)Cn2ncc(Cl)c(Cl)c2=O)cc1S(=O)(=O)N1CCOCC1 | 0.26 |
| CN(C)CCN=Cc1c(O)n(Cc2ccco2)c(=O)[nH]c1=O | 11.2 |
| COc1ccc(OC)c(C2=Nn3c(nnc3-c3ccncc3)SC2)c1 | -24.3 |
